# Literature values in patent US20240156960A1 (priority 2020, published 2024).
# B1: C131 (antibody, listed as Homo sapiens, V domains shown)
# VH: QVQLVQSGSEVKKPGSSVKVSCKASGGTFSSYAFSWVRQAPGQGLEWMGRIIPILALANYAQKFQGRVTITADKSTSTAYMELSSLRSEDTAVYYCARVNQAVTTPFSMDVWGQGTTVTVSS
# VL: EIVMTQSPATLSVSPGERATLSCRASQSVSSNLAWYQQKPGQAPRLLIYGASTRATGIPARFSGSGSGTEFTLTISSLQSEDFAVYYCQQYNNWPITFGQGTRLEIK
# How the values were obtained:
# SARS-CoV2 = conditions: source Davide Robbiani et al., 2020
molecule,measurement,setting,value
B1,Binds to,SARS-CoV2,SARS-CoV2
same,Not Neutralising Vs,SARS-CoV1,SARS-CoV1
